The supplement of paper PMC11417369
± gives the standard deviation of the averaged measurements. The list shows a part of the results.

Tested on: PfAP2-EXP AP2 domain (GST-tagged)
Experiment: gcPBM binding intensity (ln(normalized median fluorescence intensity)); higher = stronger DNA binding
Summary of the method: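 Probes on an Agilent 4 × 180k array were primer-extended, double-stranded and 36 bp long, taken from intergenic genomic regions, with negative controls added. GST-tagged P. falciparum DNA-binding domains from E. coli, about 25 μg on average, were applied to the array for 1 h in 1× PBS containing 1% milk, 0.2 mg/ml BSA, 0.5% salmon testes DNA and 0.03% Triton X-100. Binding intensity, obtained after Alexa488 anti-GST antibody detection and a 488 nm scan, is the highest Masliner-normalised natural-log median intensity across replicate spots of either probe orientation.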

Row | Sequence | gcPBM binding intensity (ln)
1 | ATAATATTATGAACCTGTACATAATTTTTCTTTTCT [XGTACX_site3377] | 8.22 ± 0.31
2 | AGTATATTTCTAACTTGTACGAAATTAATAATTTAT [XGTACX_site6635] | 8.52 ± 0.54
3 | TATATATAATATGAATGTACACAAAAAGGTAATACA [XGTACX_site6202] | 8.99 ± 0.41
4 | AAAAAAAAGAAATAGACACACATATATTTTTAAACA [CACACA_site3954] | 8.28 ± 0.46
5 | GATGAGGACAGACACACACACATAAGTTGATACATA [CACACA_site7580] | 8.71 ± 0.54
6 | CATTTTATAAAAACAAGTACCCAACATATATATAAT [XGTACX_site5955] | 8.77 ± 0.55
7 | AGACATATTCTTTTTACACACTTGAATAAAAAATAT [CACACA_site1205] | 8.37 ± 0.37
8 | TTTTTTTCTTAAAGATGTACTTTTTAAAAACAATCT [XGTACX_site986] | 8.58 ± 0.23
9 | GTTTTTACTTTTATCTGTACATAATACTACCAATAT [XGTACX_site5414] | 9.02 ± 0.34
10 | TGCCTATGACATGAATGTACATTAAAATTAAATAAA [XGTACX_site7126] | 8.46 ± 0.45
11 | CTGTACACTTAAACGGTGCAAAAAGAAAAAAAAGAA | 9.155 ± 0.035
12 | CACGCGCACCAACACACACACACACCCATATATATA [CACACA_site2204] | 8.84 ± 0.4
13 | GTTGGGTAATTCGTAACACACATAAAATATATATAA [CACACA_site3986] | 8.62 ± 0.42
14 | TTCTTTATATAAACAAGTACATATAAAATACATATA [XGTACX_site8036] | 8.45 ± 0.59
15 | AAGTTAATGTTTTGCGCACACTTCTTTTTAATATAA [CACACA_site3938] | 9.13 ± 0.41
16 | ACAGCTCTAGGACATGCATGTTATATAGAAAAAGAG [TGCATGCA_site703] | 9.59 ± 0.32
17 | TTCATTAAAGTTATTACACACAGTTCTTCAACCAAA [CACACA_site7613] | 8.48 ± 0.35
18 | AAATACATATTTAGAAGTACATTTATACATTTAATA [XGTACX_site8871] | 8.28 ± 0.27
19 | ATTTTTTCTTATAAAAAAGAAAAAGAAAAAGAAAAA [CACACA_negctrl_site1216] | 8.64 ± 0.64
20 | TATATATTAAGATGCACACACAAGAAGTAATTATAA [CACACA_site5726] | 8.93 ± 0.35
21 | GAATCACTAATTTTTTTACACACCACAATTTAATTT [CACACA_site8311] | 8.94 ± 0.47
22 | TTTCGAATTAAAGCATGTGAAAATTTTCAAAAAATA [XGTACX_negctrl_site577] | 8.55 ± 0.52
23 | ATAATAATATAATATTCACACAATTGAAATAGTGTA [CACACA_site6083] | 8.11 ± 0.3

Row | Sequence | gcPBM binding intensity (ln)
24 | ACAAAACATAATTGTTGTACAAAAAGAATTATATAT [XGTACX_site8422] | 9.38 ± 0.64
25 | AAATAAAAATTACAAGCATGCATTTTCCTATTTGCA [TGCATGCA_site861] | 8.56 ± 0.46
26 | GTGTAAAAATTAAAGTGTACACATATATATATATAT [XGTACX_site2251] | 10.2 ± 0.31
27 | TTTAAATATATTAATACACACACGATATGTACAAAA [CACACA_site539] | 8.62 ± 0.33
28 | AAAAAATTTTGAAATTGTACATATATAAAAAATATA [XGTACX_site2629] | 8.38 ± 0.35
29 | GAATAAATTGTATTGTGTACATATAAAAGCATCTAA [XGTACX_site8271] | 8.69 ± 0.37
30 | TATAAATATACAAAGGTGCATAAAAAGTTATGTTTT [GTGCAC_site9832] | 8.85 ± 0.4
31 | TTTCTATAATATTCTACACACCAACAACAAACATAT [CACACA_site6409] | 8.89 ± 0.47
32 | ATGTAGAAGTAATGCACACATATGTATATATATATA [CACACA_site2494] | 10.1 ± 0.38
33 | GGTCTTTTTATGATATGTACTTATATAATATTATAT [XGTACX_site6458] | 9.05 ± 0.33
34 | AACAGCATGAAGTAAAGTACTAGTTTTATTTATTTA [XGTACX_site1116] | 8.14 ± 0.49
35 | ATAATATATAATATAGTGCATTATTTATTAATTAAT [GTGCAC_site9852] | 8.56 ± 0.085
36 | AGGAAATTTTTTTTTTTTTTTTTTTTTTTTTTTTAC [TGCATGCA_negctrl_site170] | 7.86 ± 0.73
37 | CAAAATATTATGAATTGTACATATTTTAAAACGTTT [XGTACX_site1614] | 8.46 ± 0.35
38 | ATAGATGTCTTCATATGTACATAAATTCAAGTATAT [XGTACX_site7492] | 8.63 ± 0.47
39 | TGATTATAAAAGTAGGTGCTACAAAAATTACACATT [GTGCAC_site9530] | 8.45 ± 0.39
40 | TCCTAATGGTTTAATTGTACAAAAAAAAAAAATATA [XGTACX_site322] | 8.44 ± 0.5
41 | TGATAAGTATACTAAAGTACATGAAAAATAACTTCC [XGTACX_site6908] | 8.55 ± 0.35
42 | TGGATGAGGACATACACACACACATAAGTTGATACA [CACACA_site3423] | 8.73 ± 0.45
43 | TTATATTTTAAGAAATGTACATGATATAATTATCAA [XGTACX_site8693] | 8.39 ± 0.35
44 | TTTTTTTTAATTTTCTGTACAAATTTATATATACTA [XGTACX_site4251] | 8.68 ± 0.47
45 | TATTTCTTATGAAGGACATGCAATATTATTTATCTC [TGCATGCA_site683] | 8.49 ± 0.25
